{"source": "patent US9120774B2", "about": "(University of Kansas, priority 2009, dated 2015)", "key": {"[1]": {"test_system": "experimental autoimmune encephalomyelitis (EAE)", "experiment": "Experimental autoimmune encephalomyelitis (EAE) model"}, "[2]": {"test_system": "primary cortical neurons exposed to Aβ25-35", "experiment": "Protection against Aβ-induced toxicity in primary neurons (Live-Dead assay)", "assay_type": "cell-based", "settings": "Rattus norvegicus, Primary cortical neuron, read-out: EC50, prevention of Aβ-induced toxicity", "experimental": "In this example, the neuroprotective effects of KU-1/A4 were determined in primary neurons derived from embryonic rat brain exposed to Aβ (10 μM) in the presence or absence of the test compound for 48 hours. The percentage of surviving neurons was determined by labeling with the fluorescent dyes calcein-AM and propidium iodide as previously described. […] The numbers of calcein-labeled live cells and propidium iodide-labeled dead neurons in several fields were visualized via fluorescence microscopy and counted as described.\n(§1) Briefly, about 10 to 16 brains were removed from fetuses delivered by cesarean section, and the cortices dissected out. […] The effects of KU-1/A4, GA, Aβ, or the indicated combinations on neuronal viability were determined by monitoring cell survival using the Live-Dead assay as previously described. […] Digital images from 6 fields per dish were captured, and the number of viable (green) and dead (red) cells counted. All experiments were conducted with duplicate dishes from at least two neuronal preparations for each treatment, with about 1,000 cells analyzed/treatment condition. The data are expressed as the fraction of viable cells calculated from the total number of neurons counted under each treatment condition. The significance of differences between cultures exposed to various treatment conditions was determined using Student's t-test."}, "[3]": {"test_system": "primary cortical neurons", "experiment": "Toxicity of drug alone in neuronal cells (Live-Dead assay)", "assay_type": "cell-based", "settings": "rat", "from_the_text": "as §1, with “More specifically, primary cortical neurons were recovered from embryonic day 18 rat brains as described previously (Michaelis et al., Immunological Localization And Kinetic Characterization Of A Na+/Ca2+Exchanger In Neuronal And Nonneuronal Cells, Brain Res. 661 104-116 (1994)). Briefly,” for “Briefly,”, “out. The neurons were isolated and suspended in DMEM/F12 supplemented with 10% FBS and plated on sterile dishes or cover slips coated with 10 μg/ml poly-D-lysine and 5 μg/ml mouse laminin.” for “out.”"}, "[4]": {"test_system": "SKBr3 breast cancer cell lines", "experiment": "Cell growth / cytotoxicity in SKBr3 cells (MTT)", "assay_type": "cell-based", "settings": "varying concentrations and time", "experimental": "FIG. 14 are graphs showing the percent of cytotoxicity of DHN1 and DHN2 on SKBr3 cells at varying concentrations and time.\nN-terminal inhibitors of Hsp90 may induce the degradation of client proteins at concentrations that mirror that needed for anti-proliferative activity. Therefore, both DHN1 and DHN2 were evaluated for their ability to inhibit the growth of SKBr3 breast cancer cell lines. Cell growth was monitored using methylthiazol-tetrazolium (MTT). Briefly, cells (5×10^3) were plated in 96-well microtiter plates (Costar) in a volume of 0.1 mL DMEM containing 0.1% FBS. After 12 hours, cells were exposed to drugs (final volume 0.2 mL/well). At various times After drug addition, 20 μL of 5 mg/mL MTT solution in PBS was added to each well for four hours. After removal of medium, 0.1 mL of DMSO was added to each well to dissolve the formazan crystals. Absorbance at 562 nm was determined using an ELx 808 microplate reader (Bio-Tek, Winooski Vt.). Six wells were assayed at each concentration and the mean absorbance was determined. Absorbance at 562 nm is directly proportional to viable cell number."}, "[5]": {"settings": "second study, late treatment regimen"}}, "data": [{"smiles": "COC1C(O)C(O)C(Oc2ccc3cc(NC(C)=O)c(=O)oc3c2C)OC1(C)C", "note": "(centres unmarked) [KU-32]", "values": [{"measurement": "body weight loss", "setting": "[1]; pilot study, compared to positive control mice", "value": "the magnitude of weight loss is less"}, {"measurement": "disease severity and relapse", "setting": "[1]; second study, administration a week into the immunization protocol", "value": "reduced disease severity and inhibited disease relapse"}, {"measurement": "clinical score", "setting": "[1]; second study, early treatment group, scale 0 to 5", "value": "around 0.5"}, {"measurement": "EAE disease onset and severity", "setting": "[1]; second study, early treatment regimen (days 1, 3, 5, 7)", "value": "no change in disease onset or disease severity"}, {"measurement": "EAE disease relapse", "setting": "[1]; second study, given early in the immunization protocol", "value": "reduced disease relapse"}, {"measurement": "clinical scores", "setting": "[1]; [5]", "value": "returned to baseline"}, {"measurement": "duration of symptoms", "setting": "[1]; [5]", "value": "notably less than in the positive control group"}, {"measurement": "onset of symptoms", "setting": "[1]; second study, late treatment regimen (i.v. days 6, 8, 10, 12, 14)", "value": "earlier onset of symptoms"}, {"measurement": "EC50", "setting": "[2]", "value": "~0.9", "unit": "nM"}]}, {"smiles": "COC1=C2C[C@@H](C)C[C@H](OC)[C@H](O)[C@@H](C)/C=C(\\C)[C@H](OC(N)=O)[C@@H](OC)/C=C\\C=C(/C)C(=O)NC(=CC1=O)C2=O", "note": "[GDA, Geldanamycin, reference compound]", "values": [{"measurement": "concentrations at which the drug alone was toxic to neurons", "setting": "[3]", "value": "above 20 nM"}]}, {"smiles": "COC1C(O)C(O)C(Oc2ccc3cc(NC(=O)c4ccc(O)c(CC=C(C)C)c4)c(=O)oc3c2C)OC1(C)C", "note": "(centres unmarked) [DHN2]", "values": [{"measurement": "cytotoxicity", "setting": "[4]", "value": "neither treatment with DHN1 nor DHN2 resulted in substantial cytotoxicity"}]}]}
